Experimental data as given in patent EP1500391A1, “Therapeutic use of bicycloheptane derivatives” (NEURO3D, priority 2003, dated 2005).

System: Na+ channel (site 2)
Settings: inhibition of control specific binding; at 1µM (concentration printed only in head of Cpd A); rat cerebral cortex

Row | SMILES | %inhibition Na channel
1 | CN(C)CCO[C@@]1(c2ccccc2)C[C@@H]2CC[C@@]1(C)C2(C)C [Cpd A, (1S,2R,4S)-(+)-2-[N,N-(dimethylaminoethoxy)]-2-phenyl-1,7,7-trimethyl-bicyclo[2.2.1]heptane] | 50%
2 | CN(C)CCO[C@]1(c2ccccc2)C[C@H]2CC[C@]1(C)C2(C)C [Cpd B, (1R,2S,4R)-(-)-2-[N,N-(dimethylaminoethoxy)]-2-phenyl-1,7,7-trimethyl-bicyclo[2.2.1]heptane] | 65%
